Source: PubChem BioAssay AID1745853 (National Center for Advancing Translational Sciences (NCATS), 2022)
This is one part of the list. Shown are side measurements of this screen, not its main read-out; they come without a call.

Key:
Assay in all cases: Primary Screen for Target Class Profiling of Small Molecule Inhibitors of Methyltransferases
[1] = molecular target: Glycine N-methyltransferase (Homo sapiens) (UniProt Q14749); conditions: purified enzyme, MTase-Glo SAH luminescence; measured here: GNMT inhibition; at 40 µM; stronger effect = lower value
Procedure, shortened: (§1)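 Each enzyme was assayed with SAM and its substrate. SAH formation detected by MTase-Glo luminescence; single-point 40 uM screen[…].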

[2] = molecular target: Guanidinoacetate N-methyltransferase (Homo sapiens) (UniProt Q14353); conditions: purified enzyme, MTase-Glo SAH luminescence; measured here: GAMT inhibition; at 40 µM; stronger effect = lower value
Procedure, shortened: as §1

[3] = molecular target: Histamine N-methyltransferase (Homo sapiens) (UniProt P50135); conditions: purified enzyme, MTase-Glo SAH luminescence; measured here: HNMT inhibition; at 40 µM; stronger effect = lower value
Procedure, shortened: as §1

[4] = molecular target: Nicotinamide N-methyltransferase (Homo sapiens) (UniProt P40261); conditions: purified enzyme, MTase-Glo SAH luminescence; measured here: NNMT inhibition; at 40 µM; stronger effect = lower value
Procedure, shortened: as §1

[5] = molecular target: Phenylethanolamine N-methyltransferase (Homo sapiens) (UniProt P11086); conditions: purified enzyme, MTase-Glo SAH luminescence; measured here: PNMT inhibition; at 40 µM; stronger effect = lower value
Procedure, shortened: as §1
% is scaled to controls: 0 for no effect and ±100 for the full control effect.

Row | Compound | activity change, negative = inhibition [1] | activity change, negative = inhibition [2] | activity change, negative = inhibition [3] | activity change, negative = inhibition [4] | activity change, negative = inhibition [5]
1 | CC(C)=C1C[C@@]2(C)C(=CC1=O)CC[C@@H](OC(=O)/C(C)=C/CO)[C@@H]2C | -1.79% | 2.66% | 2.27% | -12.3% | -6%
2 | C[C@@H](N[C@H]1CCCC[C@@H]1NC(=O)c1ccc(Cl)cc1)c1cccc2ccccc12 | -10.4% | -16.7% | 0.565% | -32.6% | -6.67%
3 | CCNC(=O)N1CCN(CCCC(c2ccc(F)cc2)c2ccc(F)cc2)CC1 | -1.93% | 14.1% | 4.24% | -6.93% | 3.88%
4 | Cc1nc(N2CCC(NCCc3n[nH]c(=O)[nH]3)CC2)c2ccsc2n1 | -3.26% | -4.61% | 0.215% | -2.31% | -1.89%
5 | CC1CC[C@]2(C(=O)O)CC[C@]3(C(=O)O)C(=CCC4[C@@]5(C)CC[C@H](OC6OC(C)C(O)C(OC7OC(CO)C(O)C(O)C7O)C6O)C(C)(C)C5CC[C@]43C)C2C1C (stereo not given in full) | -5.55% | -15.8% | 3.23% | -25.6% | -0.795%
6 | CCN(CC)CCNC(=O)CCc1nnc2n(Cc3ccccc3)c(=O)c3ccccc3n12 | -5.36% | 0% | -25.1% | 8.97% | 3.56%
7 | Fc1ccc(C(OCCCc2cnc[nH]2)c2ccc(F)cc2)cc1 | -2.57% | 7.78% | -74.9% | -13.8% | 6.28%
8 | COCCCNC(=O)C1(C)Cn2nc(-c3ccccc3)cc2C(=O)N1c1cc(OC)cc(OC)c1 (stereo not given) | 5.53% | 0% | 7.45% | 6.71% | 0.808%
9 | CCc1ccc(S(=O)(=O)c2nnn3c2nc(N2CCN(CC)CC2)c2cc(Cl)ccc23)cc1 | -14.5% | 0.402% | -22.1% | -2.99% | -10.1%
10 | COc1cc2c(cc1OC)-c1cc(=Nc3c(C)cc(C)cc3C)n(C)c(=O)n1CC2 | -15.6% | 5.45% | -4.24% | -15% | 0.202%
11 | c1ccc(Cc2nnc([C@H]3CCN(CC4CCCCC4)C3)o2)cc1 | -3.87% | -0.322% | -3.77% | -5.42% | -30.1%
12 | Cn1c(=O)c(-c2c(Cl)cccc2Cl)cc2cnc(Nc3ccc(N4CCOCC4)cc3)nc21 | -1.7% | 9.54% | -2.77% | -8.23% | 0.829%
13 | Cn1cc(-c2ccc(F)c(C(F)(F)F)c2)nc1C1CCN(c2ncnc3[nH]ncc23)CC1 | 1.51% | 15.5% | 4.57% | -71.8% | -5.88%
14 | COc1cc(C(=O)OCC2=CCC3C(C(=O)O)=COC(O[C@@H]4O[C@H](CO)[C@@H](O)[C@H](O)[C@H]4O)C23)ccc1O (stereo not given in full) | 3.82% | 1.4% | 10.4% | -8.77% | 2.64%
15 | CCn1nccc1C(=O)N1C[C@@H]2CCCN3CCC[C@@H]([C@H]23)[C@H]1CCCC(=O)NC | 0.548% | 0.263% | -4.47% | -5.8% | 9.24%
16 | OCCc1ccc(O[C@@H]2O[C@H](CO)[C@@H](O)[C@H](O)[C@H]2O)cc1 | 15.3% | 17.2% | 12.4% | 5.88% | 4.65%
17 | CCc1ccc(S(=O)(=O)c2nnn3c2nc(NCCc2c[nH]c4ccccc24)c2ccccc23)cc1 | 2.16% | 0.39% | 5.71% | 7.77% | 0.765%
18 | Cc1ccc(S(N)(=O)=O)cc1C(=O)N1CCCn2nc(C(C)O)cc2C1 (stereo not given) | -6.9% | -5.64% | -3.34% | -10.9% | -6.85%
19 | CCCCNc1ccc(C(=O)OCCN(CC)CC)cc1 | -1.2% | 9.28% | -14.5% | -14.6% | -8.35%
20 | CCCNC(=O)N[C@@H]1CCC[C@@H](C(=O)N(CC)CC)CC(=O)N(C)C1 | -9.03% | -9.19% | -17.5% | -16.1% | -7.32%
21 | COC(=O)c1cc2n(n1)CC(C)(C(=O)NC1CCCC1)N(c1ccc(Cl)cc1C)C2=O (stereo not given) | 4.14% | 0% | 8.8% | 10.8% | 3.54%
22 | CCOC(=O)c1cc2n(n1)CC(C)(C(=O)NCc1ccc(C)cc1)N(C1CC1)C2=O (stereo not given) | 2.62% | 0% | 4.34% | 2.1% | 1.54%
23 | Cc1cccc([S+](=O)([O-])N2CCC3(CC2)OCCN(CC2CC2)C3=O)c1 | -8.67% | -13.7% | -6.19% | -18.2% | -12.4%
24 | CCNC(=O)N1CCOc2ccc(CN3CCOCC3)cc2C1 | -3.98% | -0.132% | -0.527% | -2.4% | -20.5%
25 | CCC/C=C/C=C/C1CC(O)C2(O)C(=O)OCC12 (stereo not given) | 9.11% | 4.12% | 9.03% | -10.1% | -0.449%
26 | COc1ccc(C(=O)N2CCCC(n3cc(-c4nc(C5CC5)no4)nn3)C2)cn1 (stereo not given) | 0.785% | -1.8% | 0.166% | -3.79% | 0.82%
27 | O=C(CCc1nc2ccccc2[nH]1)N1CCC(c2nc(CCOCC3CC3)no2)C1 (stereo not given) | -7.15% | -1.01% | 0.827% | -1.97% | -0.588%
28 | CCOC(=O)c1cc2n(n1)CC(C)(C(=O)NC1CCCCC1)N(Cc1ccc(CC)cc1)C2=O (stereo not given) | 0.903% | 0.575% | -0.324% | -2.02% | 4.9%
29 | C=CC1(C)C=C2C(=O)OC(=O)C3=C(CCCC3(C)C)C2(O)CC1 (stereo not given) | 1.12% | 5.9% | 1.99% | -10.4% | 3.39%
30 | COc1cccc(-n2nc(C(=O)O)cc2-c2ccc(C3CCCCC3)c(Cl)c2)c1 | -36.9% | 7.93% | -3.53% | -91.2% | -6.72%
